From the RNAGym collection of RNA variant scans (doi:10.7554/elife.90254) come the findings set out here.

The source gives no read counts; variants with many changes may rest on few reads.

To fix the notation:
B1: LINE1-mini (parent)
chain: GGCAGAGCUCAACACAGCGUGGCAAAGUGGCUGUGGCUAGACUGCC

Variants of B1 are the subject of the data set. The data set can be described thus: self-cleavage, relative activity (ratio to wild type); higher = more cleavage; in vitro, sequencing; the parent is a self-cleaving ribozyme.
For C3U C10U A39U C42G, the self-cleavage turned out to be 0.06.

In the case of C3U C15U A26C, the self-cleavage worked out at 0.5.

As to C3U C23A G30A U32G, the self-cleavage came out at 0.13.

On to C3U C13A U20C G40U, for which the self-cleavage came to 0.05.

For C3U C18U C42G, the self-cleavage turned out to be 0.04.

As to C3U C18G A41C, the self-cleavage stood at 0.04.

Take C3U C10U U32A U34A: the self-cleavage was 0.04.

For C3U G5U A14U, the self-cleavage amounted to 0.38.

In the case of C3U G5U C23A G44A, the self-cleavage came out at 0.05.

Consider C3U C10A G36A C37G, for which the self-cleavage was 0.02.

In the case of C3U G5U G36U, the self-cleavage was found to be 0.23.

In the case of C3U C10G A25U U28A C45U, the self-cleavage is 0.04.

Take C3U C13U G19A: the self-cleavage stood at 0.28.

For the variant C3U C13U C42U G44C C46A, the self-cleavage came to 0.03.

As for C3U G5A C10A U38G A39C, the self-cleavage came to 0.03.

As to C3U G5U A41C, the self-cleavage turned out to be 0.04.

As for C3U G5A U28A C46G, the self-cleavage turned out to be 0.14.

Take C3U C10U U20C G22A G29C G36C: the self-cleavage is 0.01.

In the case of C3U C13U G30A A39C, the self-cleavage was found to be 0.07.

For the variant C3U C15U C46A, the self-cleavage was 0.29.

As for C3U C13U U20C A39C, the self-cleavage came out at 0.08.

C3U C23G C42A: the self-cleavage was 0.43.

As for C3U G5U G7A C10A A16U A39C C46A, the self-cleavage is 0.03.

For C3U G7A A25G, the self-cleavage turned out to be 0.05.

For the variant C3U C13G A14G, the self-cleavage is 0.07.

As for C3U C8U A12U G21A U28A A41U, the self-cleavage was determined as 0.27.

With C3U G5U C10G A11C A16G A39U, the self-cleavage came to 0.01.

On to C3U C10G A24U A39U A41U, for which the self-cleavage came to 0.06.

C3U G5U G17C U20C: the self-cleavage was 0.03.

As to C3U C15A U28G C45A, the self-cleavage stood at 0.13.

With C3U C13U A16U C31G, the self-cleavage was found to be 0.06.

Regarding C3U C18G U38C C42A, the self-cleavage stood at 0.04.

Consider C3U C15U C18A G44C, for which the self-cleavage was found to be 0.05.

As to C3U C10A G21C G29U U32C A39C, the self-cleavage came to 0.02.

Consider C3U G5U C42A, for which the self-cleavage came to 0.08.

With C3U C10U C42G, the self-cleavage worked out at 0.02.

In the case of C3U C13A C23U A24U U28A C31A A41G C42U, the self-cleavage is 0.07.

Regarding C3U C8U G21A G22C U34C, the self-cleavage worked out at 0.09.

On to C3U G5C G29U, for which the self-cleavage was 0.1.

Take C3U G5C A16U U34G C45U C46U: the self-cleavage worked out at 0.03.

C3U C10G A12G: the self-cleavage amounted to 0.01.

Turning to C3U C18G C23A C46U, the self-cleavage stood at 0.05.

C3U G5U U9C C10U: the self-cleavage was found to be 0.03.

As for C3U C10U A26C G27A G35U G36A, the self-cleavage was determined as 0.

In the case of C3U G5C A6G G7U U34C, the self-cleavage came out at 0.03.

For the variant C3U G5U G7A G27C, the self-cleavage is 0.17.

Take C3U G7A A11C A25C: the self-cleavage came out at 0.03.

Regarding C3U C8U U20A, the self-cleavage amounted to 0.01.

On to C3U C37U A41U, for which the self-cleavage amounted to 0.04.

With C3U C10A C15U U20C G36U C37U, the self-cleavage is 0.01.

Turning to C3U C13A C23U A24C, the self-cleavage amounted to 0.28.

With C3U G7A A16C, the self-cleavage amounted to 0.05.

Regarding C3U C23U A25C, the self-cleavage was determined as 0.63.

In the case of C3U C15U C23G, the self-cleavage stood at 0.9.

C3U C13G G33U: the self-cleavage stood at 0.05.

As to C3U C13U G21A, the self-cleavage turned out to be 0.04.

Turning to C3U C10U A26C G29C U32C, the self-cleavage came to 0.03.

As to C3U G5A G21C G35C, the self-cleavage came out at 0.15.

With C3U C8U G33C, the self-cleavage is 0.12.

On to C3U C10A C13G C15U G19A U34A A41G U43G, for which the self-cleavage is 0.01.

As to C3U C18U G19A G27U G33U G36C, the self-cleavage came out at 0.01.

For C3U C18U G29A G30C, the self-cleavage amounted to 0.22.

As to C3U G7A A11G G44A, the self-cleavage worked out at 0.

As to C3U C10G A12C G27U, the self-cleavage worked out at 0.04.

Consider C3U G5U G36A C37G A41U, for which the self-cleavage amounted to 0.12.

As for C3U C15A G30U C31A, the self-cleavage turned out to be 0.08.

Turning to C3U C10A G17C G19U A25U, the self-cleavage worked out at 0.06.

Regarding C3U C13G U20G, the self-cleavage was 0.1.

For the variant C3U C37G A41G, the self-cleavage amounted to 0.08.

As for C3U G7A A11G, the self-cleavage amounted to 0.09.

Regarding C3U C10U A14U C31A, the self-cleavage was 0.06.

Regarding C3U G5A U9A C42A, the self-cleavage amounted to 0.27.

Take C3U C10G G29A C31G: the self-cleavage is 0.03.

In the case of C3U C31U G36A, the self-cleavage turned out to be 0.

As for C3U C15A A25U, the self-cleavage was found to be 0.11.

In the case of C3U C10A G19U G33U, the self-cleavage came out at 0.03.

Take C3U C10U A26C G27U C31U: the self-cleavage amounted to 0.09.

As to C3U C10A G17C G30A, the self-cleavage was 0.04.

C3U C15G G30C C37A: the self-cleavage came to 0.02.

Consider C3U G5A C15U G17U A26G G29C C45U, for which the self-cleavage was determined as 0.09.

As to C3U G5A C10U C15A A16U A26G G40C, the self-cleavage came to 0.1.

In the case of C3U C23A U28A U34G, the self-cleavage turned out to be 0.02.

As to C3U C10U G19U, the self-cleavage stood at 0.12.

Take C3U C15U G36C C46A: the self-cleavage is 0.02.

For the variant C3U C10U A25U U28G G35U C45A, the self-cleavage was determined as 0.04.

For C3U C8G G35A, the self-cleavage came to 0.12.

Consider C3U C10U C15U C23U U38C, for which the self-cleavage turned out to be 0.07.

C3U C8U C10A: the self-cleavage was determined as 0.03.

For C3U C8U U9C G17A, the self-cleavage turned out to be 0.05.

With C3U C8G U32A C42G U43A, the self-cleavage is 0.2.

C3U C23A A41C: the self-cleavage turned out to be 0.07.

Turning to C3U C23A U32A, the self-cleavage was found to be 0.2.

For C3U C15A G40C, the self-cleavage was found to be 0.

In the case of C3U C15U G40A C45U, the self-cleavage stood at 0.08.

As for C3U C10A C31A U34G C37A, the self-cleavage worked out at 0.01.

With C3U G7A A25C C31A, the self-cleavage came to 0.15.

C3U C13U G19U G36U: the self-cleavage turned out to be 0.25.

Regarding C3U C8U U32C G44A, the self-cleavage came to 0.53.

Turning to C3U C10U A11C, the self-cleavage amounted to 0.03.

Regarding C3U G5C G17C, the self-cleavage came to 0.07.

In the case of C3U C23A A24U G44C, the self-cleavage was determined as 0.39.

Take C3U C13A U34G: the self-cleavage came to 0.04.

With C3U C18A G30C, the self-cleavage stood at 1.5.

For C3U C18U G19A U34C, the self-cleavage was determined as 0.04.

Turning to C3U C18A G30U U38G, the self-cleavage worked out at 0.03.

As for C3U C15U G30A, the self-cleavage amounted to 0.08.

As to C3U G5A C8U A11C A14G C42U U43C, the self-cleavage is 0.

For the variant C3U C18A A26C, the self-cleavage was 0.06.

Consider C3U G5U A25U C45A, for which the self-cleavage was determined as 0.04.

Regarding C3U G7A A26G, the self-cleavage is 0.21.

On to C3U C10U G22A G30A, for which the self-cleavage was 0.22.

With C3U C10A G33A A39C U43A, the self-cleavage came out at 0.01.

For C3U C10A A16C A39C, the self-cleavage amounted to 0.01.

As to C3U C10G A16C U20A A25C G44A, the self-cleavage worked out at 0.03.

On to C3U G5A G33U, for which the self-cleavage is 0.02.

Take C3U C15A G21U G30A: the self-cleavage was 0.06.

As for C3U C8G U20G, the self-cleavage amounted to 0.15.

With C3U C15A G19U G27U, the self-cleavage is 0.02.

On to C3U C15U A16G U32A C46A, for which the self-cleavage came out at 0.02.

Regarding C3U C13A A39U, the self-cleavage came out at 0.38.

Consider C3U G5U A12G, for which the self-cleavage turned out to be 0.03.

C3U C10U C31A: the self-cleavage stood at 0.04.

Take C3U C10A C13A U28G G36A: the self-cleavage is 0.03.

Consider C3U C23A G40U, for which the self-cleavage was determined as 0.11.

Take C3U C23A G40C: the self-cleavage amounted to 0.05.

In the case of C3U C15A G17A, the self-cleavage turned out to be 0.05.

Consider C3U C10U G19U U43G, for which the self-cleavage came to 0.01.

Consider C3U C10A A11C G36C G44U, for which the self-cleavage came out at 0.01.

Consider C3U C15U C31G C45G, for which the self-cleavage is 0.04.

For the variant C3U G5A U20A G21A C46A, the self-cleavage was 0.88.

In the case of C3U G5A C10A G17U U28C C31G, the self-cleavage was 0.02.

Take C3U G5C G7C G30U G36C: the self-cleavage is 0.17.

Consider C3U C10U A11C A14U A16U U32G, for which the self-cleavage is 0.03.

For the variant C3U C23U A25G C37U G44U, the self-cleavage was 0.15.

As for C3U C10U C13U U34A A41C, the self-cleavage came to 0.02.

With C3U C15A A16C G36C C46U, the self-cleavage was found to be 0.01.

Consider C3U C10A G17U, for which the self-cleavage is 0.07.

In the case of C3U C15U G17C C18A G33A G36A, the self-cleavage came out at 0.02.

C3U C13U G17U U38A: the self-cleavage is 0.31.

As to C3U C18U G35U, the self-cleavage amounted to 0.07.

Turning to C3U G5C A12G, the self-cleavage came to 0.03.

Regarding C3U C18G G30C, the self-cleavage was 1.06.

For the variant C3U C10G G27A, the self-cleavage stood at 0.07.

On to C3U C10U U34C, for which the self-cleavage was found to be 0.06.

In the case of C3U C13G G21U, the self-cleavage was 0.08.

In the case of C3U G5A C45U, the self-cleavage amounted to 0.12.

Take C3U G5C G30U C37U: the self-cleavage was 0.2.

C3U C23A C31G: the self-cleavage was 0.05.

Consider C3U C10G G22U C45U, for which the self-cleavage was 0.03.

With C3U C15G C37G G40U, the self-cleavage was found to be 0.02.

Turning to C3U C15A G40A C46A, the self-cleavage turned out to be 0.08.

For C3U G5U C45U, the self-cleavage came out at 0.76.

For C3U C18G G29C G30U, the self-cleavage came out at 0.06.

C3U C8G U34A: the self-cleavage stood at 0.05.

Consider C3U G5U C13A G29C, for which the self-cleavage is 0.05.

For C3U C13A G30C C31G G33C C37U, the self-cleavage was 0.03.

In the case of C3U C10A G30A C46A, the self-cleavage was 0.03.

Regarding C3U G5U C10A A24C A25G G44C, the self-cleavage came out at 0.01.

With C3U C13A A25C, the self-cleavage stood at 0.04.

For the variant C3U G7A C8U A16G A25C G44A, the self-cleavage turned out to be 0.02.

Turning to C3U C18A G22C G27A A39C, the self-cleavage came out at 0.85.

Turning to C3U C8G G44C, the self-cleavage turned out to be 0.02.

Regarding C3U G5A G29U, the self-cleavage turned out to be 0.33.

In the case of C3U G5C C15U C18G G21C A24C G27C G40C, the self-cleavage stood at 0.21.

As to C3U C18A G22A C23G, the self-cleavage was 0.01.

As for C3U G5U C10A C45G, the self-cleavage was found to be 0.02.

C3U C8U G33U G40U C45U: the self-cleavage worked out at 0.1.
